Experimental data published in patent US20260199274A1 (priority 2022, published 2026).

How the values were obtained:
[1] = system: A/Scotland/20/74 (H3N2) virus; assay: IAV-infected NF-kB transgenic Balb/c mice: bioluminescence, histopathology, survival, weight
[2] = system: A/Scotland/20/74 (H3N2) virus; settings: IAV 100 pfu, 30 mg/kg CA intranasally 20 minutes post-infection
[3] = system: A/Scotland/20/74 (H3N2) virus
[4] = system: A/Scotland/20/74 (H3N2) virus; remark: listed apart in the source
[5] = system: A/Scotland/20/74 (H3N2) virus; assay: Survival of IAV-infected C57Bl/6 mice, comparison with oseltamivir; settings: for efficacy when administered at a distance from the infection: administered 4 days post infection; for body weight of surviving mice: after 15 days; for effect on survival: treatment 2 days post-infection, C57Bl/6, CA 30 mg/kg, Osel 20 mg/kg intranasal
[6] = system: A/Scotland/20/74 (H3N2) virus; remark: listed apart in the source
[7] = system: A/Scotland/20/74 (H3N2) virus; assay: IAV-infected C57Bl/6 mice: viral load, BAL mediators, immune cells
[8] = system: A/Scotland/20/74 (H3N2) virus; remark: listed apart in the source
[9] = system: A/Scotland/20/74 (H3N2) virus; assay: RT-qPCR of M1 viral mRNA in BEAS-2B cells; settings: 6 h pi
[10] = 0.6 mg CA 2 days pi, histopathology at 8 days pi
[11] = Balb/c, IAV 300 PFU, 0.6 mg CA intranasally 2 days pi
[12] = treated at 20 minutes post-infection
[13] = treated at 20 minutes post-infection, intranasal, CA 30 mg/kg, Osel 20 mg/kg
[14] = 0.6 mg CA 2 days post-infection, day 8 p.i.

In the case of `O=C(O)/C=C(/CC(=O)O)C(=O)O` [cis-aconitate], the “IAV-triggered inflammation (NF-kB activity, bioluminescence)” value ([1]; 0.6 mg CA 2 days pi, 8 days post-infection) is reported as “drastically reduced”, the “IAV-induced alveolar wall thickening, hyaline membrane formation, and epithelial necrosis” value [1, 10] is reported as “significant reduction” and the inflammation score [1, 10] is reported as “reduced”. The lung congestion [1, 10] was “diminished”, the survival rate [1, 11] was 90% and the “weight loss of IAV-infected animals” value [1, 11] was “mitigating weight loss”. The effect on survival ([1]; treatment 2 days post-infection, Balb/c mice) was “persisted”, the “survival patterns in CAD−/− mice” value [2] was “closely mirrored those in wild-type mice” and the NA activity [3] was “significantly decreased”. The “reduction of NA activity in cell supernatants” value [4] was 60 fold, the “efficacy when administered at a distance from the infection” value [5] was “effective” and the “body weight of surviving mice” value [5, 12] was “returned to their original weight”. For the same molecule, the survival rate [5, 13] was 80%, the survival rate ([5]; treated day 4 and day 5 post-infection, 30 mg/kg intranasal) was 50% and the effect on survival [5] was “persisted”. For the same molecule, the “viral protein expression of NP, NS1, and PA” value [6] was “drastically decreases”, the “relative expression of 50 mediators in BAL” value ([7]; 0.6 mg CA 2 days post-infection, day 4 p.i.) was “markedly reduced” and the alveolar macrophage numbers [7, 14] was “comparable to non-infected conditions”. The “decrease of neutrophil recruitment” value [7, 14] was “two-thirds”, the “activation of NKT, DC, alveolar macrophages, and T cells” value ([7]; 0.6 mg CA 2 days post-infection, day 8 p.i., versus infected non-treated mice) was “significantly lower” and the “reduction in viral load in lung tissues” value ([7]; 0.6 mg CA intranasally 2 days post-infection, day 4 p.i.) was 1 log. The “antiviral and anti-inflammatory properties with CAD siRNA” value [8] was “conserved” and the “relative expression of viral matrix 1 (M1) mRNA” value [9] was “tenfold”.
For `C=C(CC(=O)O)C(=O)O` [itaconate, reference compound], the “reduction of NA activity in cell supernatants” value [4] was 4.8 fold.
With `CCOC(=O)C1=C[C@@H](OC(CC)CC)[C@H](NC(C)=O)[C@@H](N)C1` [oseltamivir, reference compound] the “efficacy when administered at a distance from the infection” value [5] was “ineffective”, the “body weight of surviving mice” value [5, 12] was “returned to their original weight” and the survival rate [5, 13] was 90%. For the same molecule, the effect on survival [5] was “nullified”.
